# Measurements taken from PubChem BioAssay (Tox21).
# “And” between values parts separate entries of the source, which are not always exact repeats. Equal entries are not always repeated. This list was built around the results that the source calls inconclusive (neither active nor inactive); the mix of calls is not that of the screen. For some of these results: A potency beside an inconclusive call is a rough fit, not a confirmed value. Where a structure was tested more than once in an assay, its records may differ in their call. The source made the active and inactive calls. Unless noted, calls come from the whole dose curve; as a rule, active = well fitted curve in the direction sought with a large enough effect in the repeat runs; inconclusive = weak or mixed curves; inactive = no such curve, though single readings can be large; an effect the other way counts as inactive or inconclusive.
# Columns and labels:
# [1] = qHTS assay for small molecules that induce genotoxicity in human embryonic kidney cells expressing luciferase-tagged ATAD5 (AID 651632); note: % is set by controls: 0 for no effect and ±100 for the full control effect; nearly all actives have a fitted effect of over 15% in size
# How it was run: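 A rise in luciferase signal from ATAD5-tagged HEK293T cells marks genetic stress. Cells were exposed to compounds for 16 hr at 37C, 5% CO2, then luciferase was quantified after a 30 min room-temperature incubation with Amplite.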
# [2] = qHTS assay for small molecule agonists of the p53 signaling pathway - cell viability (AID 651633; calls by dose curve; note: nearly all actives have a fitted effect of over 30% in size; note: potency is the fitted concentration of half-maximal effect)
# How it was run: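 p53RE-bla cells, seeded at 4,000 per well and rested 5 h at 37 C/5% CO2, received compounds in DMSO for 16 h at 37 C. CellTiter-Glo was then added, and luminescence was read after 30 min at room temperature to gauge cytotoxicity.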
# [3] = qHTS assay for small molecule disruptors of the mitochondrial membrane potential - cell viability (AID 720634; calls by dose curve; note: nearly all actives have a fitted effect of over 20% in size; note: potency is the fitted concentration of half-maximal effect)
# How it was run: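 Cytotoxicity was quantified from ATP content by CellTiter-Glo luminescence in the same wells as the MMP dye read-out. HepG2 (2,000 cells/well) were plated overnight and exposed to compounds for 1 hr at 37 C.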
# [4] = qHTS assay to identify small molecule antagonists of the glucocorticoid receptor (GR) signaling pathway - cell viability counter screen (AID 720693); conditions: GR-bla HeLa viability, CellTiter-Glo luminescence, 18 h, with 5 nM dexamethasone present; viability change, negative = cytotoxic: at 58.5 µM (top of the series) unless noted; note: nearly all actives have a fitted effect of over 55% in size; note: potency is the fitted concentration of half-maximal effect
# [5] = qHTS assay for identifying genotoxic compounds that show differential cytotoxicity against isogenic chicken DT40 cell lines with known DNA damage response pathways - Rev3 mutant cell line (AID 743014); conditions: chicken DT40 Rev3-/- viability, CellTiter-Glo, 40 h; activity, negative = cytotoxicity: at 68.4 µM (top of the series); note: nearly all actives have a fitted effect of over 55% in size; note: potency is the fitted concentration of half-maximal effect
# [6] = qHTS assay for small molecules that induce genotoxicity in human embryonic kidney cells expressing luciferase-tagged ATAD5 - cell viability (AID 651634; calls by dose curve; note: nearly all actives have a fitted effect of over 25% in size; note: potency is the fitted concentration of half-maximal effect; for activity, negative = cytotoxicity: % is set by controls: 0 for no effect and ±100 for the full control effect)
# How it was run: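 Cytotoxicity counter-readout: after 15.5 hr compound treatment at 37C, live-cell protease activity in ATAD5-luciferase HEK293T cells measured by CellTiter-Fluor fluorescence, 30 min development at 37C.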
# [7] = qHTS assay for small molecule disruptors of the mitochondrial membrane potential (AID 720635); conditions: HepG2 mitochondrial membrane potential, Mito-MPS dye ratio; note: potency is the fitted concentration of half-maximal effect; for ratio activity, negative = MMP loss: % is set by controls: 0 for no effect and ±100 for the full control effect
# How it was run: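 HepG2 cells (2,000/well) attached overnight at 37C, then took compound for 1 hr at 37C, 5% CO2. Mito-MPS dye was added for 30 min; fluorescence was read at 490/535 nm (monomers) and 540/590 nm (aggregates).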
# [8] = molecular target: Glucocorticoid receptor (Homo sapiens) (UniProt P04150); test: qHTS assay to identify small molecule agonists of the glucocorticoid receptor (GR) signaling pathway (AID 720691; active = well fitted activation curve with a large enough effect in the signal ratio in the repeat runs, not every such curve was filed as active; inconclusive = weak or mixed curves, or effect the other way; inactive = no such curve, though single readings can be large or run the other way; the % refers to the signal ratio; note: potency is the fitted concentration of half-maximal effect; for activation: % is set by controls: 0 for no effect and ±100 for the full control effect); conditions: GR-bla HeLa, beta-lactamase reporter ratio, 18 h; activation: at 62.4 µM (top of the series) unless noted
# How it was run: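 Agonist-mode qHTS in HeLa cells stably expressing a glucocorticoid-response-element beta-lactamase reporter. Fluorescence intensity read with FRET substrate (2 h, room temperature) after 18 h compound treatment at 37 C.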
# [9] = molecular target: Glucocorticoid receptor (Homo sapiens) (UniProt P04150); test: qHTS assay to identify small molecule antagonists of the glucocorticoid receptor (GR) signaling pathway (AID 720692; active = well fitted inhibition curve with a large enough effect in the signal ratio in the repeat runs, not every such curve was filed as active; inconclusive = weak or mixed curves, or effect the other way; inactive = no such curve, though single readings can be large or run the other way; the % refers to the signal ratio; note: potency is the fitted concentration of half-maximal effect; for activity change, negative = inhibition: % is set by controls: 0 for no effect and ±100 for the full control effect); conditions: GR-bla HeLa, beta-lactamase FRET ratio, dexamethasone-stimulated, 18 h; activity change, negative = inhibition: at 58.5 µM (top of the series) unless noted
# How it was run: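 Inhibition of dexamethasone-driven (5 nM final) beta-lactamase expression was measured in GRE-reporter HeLa cells over 18 h at 37C. Fluorescence was read after 2 h with the B/G FRET substrate at room temperature.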
# [10] = qHTS assay for identifying genotoxic compounds that show differential cytotoxicity against isogenic chicken DT40 cell lines with known DNA damage response pathways - wild type cell line (AID 743012); conditions: DT40 wild type chicken cells viability, CellTiter-Glo, 40 h; activity change, negative = cytotoxicity: at 68.4 µM (top of the series) unless noted; note: nearly all actives have a fitted effect of over 60% in size; note: potency is the fitted concentration of half-maximal effect
# How it was run: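 Viability by ATP luminescence (CellTiter-Glo, 30 min RT) after 40 h compound treatment at 37 C/5% CO2, using 300 parental DNA repair-proficient DT40 cells per well.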
# [11] = qHTS assay to identify small molecule antagonists of the androgen receptor (AR) signaling pathway - cell viability counter screen (AID 743033; note: potency is the fitted concentration of half-maximal effect; nearly all actives have a fitted effect of over 45% in size); conditions: AR-bla HEK293 viability, CellTiter-Glo luminescence, 16 h; activity change, negative = cytotoxicity: at 58.5 µM (top of the series)
# [12] = qHTS assay for identifying genotoxic compounds that show differential cytotoxicity against isogenic chicken DT40 cell lines with known DNA damage response pathways - Rad54/Ku70 mutant cell line (AID 743015); conditions: DT40 Rad54/Ku70 mutant viability, CellTiter-Glo, 40 h; activity change, negative = cytotoxicity: at 66.8 µM (top of the series); note: potency is the fitted concentration of half-maximal effect; nearly all actives have a fitted effect of over 60% in size
# [13] = qHTS assay to test for compound auto fluorescence at 460 nm (blue) in HEK293 cells (AID 720678); note: potency is the fitted concentration of half-maximal effect
# How it was run: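 Blue read-out at excitation 405 nm and emission 460 nm follows overnight compound exposure of HEK293 cells at 37C in 5% CO2. Activity is given as auto fluorescence equivalency to triamterene.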
# [14] = ratio activity, negative = MMP loss: at 83.2 µM (top of the series) unless noted
# Tags give direction and shape of the fitted curve or compound fluorescence and quenching.
# Sequence of UniProt P04150 (P04150 whole entry, looked up): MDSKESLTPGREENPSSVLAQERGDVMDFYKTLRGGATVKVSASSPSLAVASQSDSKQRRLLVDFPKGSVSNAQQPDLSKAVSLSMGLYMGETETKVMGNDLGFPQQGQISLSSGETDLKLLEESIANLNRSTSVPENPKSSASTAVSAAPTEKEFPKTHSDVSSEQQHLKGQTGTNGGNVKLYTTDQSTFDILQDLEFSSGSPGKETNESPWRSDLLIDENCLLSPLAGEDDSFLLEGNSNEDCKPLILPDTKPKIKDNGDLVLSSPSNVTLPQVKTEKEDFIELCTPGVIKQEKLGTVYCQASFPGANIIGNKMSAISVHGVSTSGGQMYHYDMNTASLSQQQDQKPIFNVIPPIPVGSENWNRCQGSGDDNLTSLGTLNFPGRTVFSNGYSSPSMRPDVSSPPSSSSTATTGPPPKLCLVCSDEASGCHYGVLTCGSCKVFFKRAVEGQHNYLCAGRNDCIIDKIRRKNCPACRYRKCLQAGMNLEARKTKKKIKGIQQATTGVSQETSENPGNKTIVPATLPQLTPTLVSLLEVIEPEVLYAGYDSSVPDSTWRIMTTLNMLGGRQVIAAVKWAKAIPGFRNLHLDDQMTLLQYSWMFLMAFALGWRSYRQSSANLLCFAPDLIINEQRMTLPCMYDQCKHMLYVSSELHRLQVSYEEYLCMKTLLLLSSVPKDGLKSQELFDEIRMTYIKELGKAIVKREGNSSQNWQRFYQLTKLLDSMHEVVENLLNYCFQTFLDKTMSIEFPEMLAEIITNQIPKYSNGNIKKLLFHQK
structure (smiles),measurement,setting,value
CO/N=C(/C1=NOCCO1)c1ccccc1Oc1ncnc(Oc2ccccc2Cl)c1F,Potency,[1],inactive
same,Potency,[2],"inconclusive: 0.611 µM [cytotoxic, full curve, poor fit]"
same,Potency,[3],"inconclusive: 34.3 µM [cytotoxic, partial curve, poor fit]"
same,Potency,[4],"inconclusive: 61.6 µM [cytotoxic, single point]"
same,Potency,[5],active: 0.0544 µM
C[C@]12Cc3nonc3C[C@@H]1CC[C@@H]1[C@@H]2CC[C@@]2(C)[C@H]1CC[C@]2(C)O,Potency,[6],"inconclusive: 29.8 µM [falling, single point]"
same,Potency,[3],"inconclusive: 10.6 µM [cytotoxic, partial curve]"
same,Potency,[7]; [14],"inconclusive: 5.55 µM [activator, full curve]"
same,activation,[8],inconclusive: -12%
same,Potency,[9],active: 7.56 µM
same,Potency,[10],active: 11.9 µM
same,Potency,[11],"inconclusive: 95.2 nM [cytotoxic, full curve, poor fit]"
Clc1ccc(COC(Cn2ccnc2)c2ccc(Cl)cc2Cl)cc1 (stereo unspecified),Potency,[2],"inconclusive: 57 µM [cytotoxic, single point]"
same,Potency,[3],"inconclusive: 50.8 µM [cytotoxic, single point] and inconclusive: 68.3 µM [cytotoxic]"
same,Potency,[8],"inconclusive: 23.9 µM [cytotoxic, partial curve] and inconclusive: 18.2 µM [cytotoxic, full curve] and inconclusive: 48.8 µM [cytotoxic, partial curve]"
same,Potency,[9],"inconclusive: 23.9 µM [cytotoxic, partial curve] and inconclusive: 40.7 µM [cytotoxic, partial curve] and inconclusive: 54.7 µM [cytotoxic]"
same,Potency,[4],"inconclusive: 26.8 µM [cytotoxic, single point] and inconclusive: 45.7 µM [cytotoxic, single point] and inconclusive: 54.7 µM [cytotoxic]"
same,Potency,[11],inconclusive: 23.9 µM [cytotoxic] and active: 40.7 µM and active: 38.7 µM
Nc1ccc(-c2ccc(N)c(N)c2)cc1N,Potency,[2],"inconclusive: 3.43 µM [cytotoxic, partial curve, poor fit]"
same,Potency,[7]; [14],active: 216 nM and active: 7.7 µM
same,Potency,[10],active: 60.9 µM and active: 9.69 µM
same,Potency,[12],active: 68.4 µM and active: 12.2 µM
CCCCOCCOP(=O)(OCCOCCCC)OCCOCCCC,Potency,[6],"inconclusive: 68.7 µM [falling, single point]"
same,Potency,[3],active: 54.5 µM
same,Potency,[7]; [14],active: 27.3 µM and inactive
same,Potency,[10],"inconclusive: 68.7 µM [cytotoxic, single point] and inconclusive: 61.1 µM [cytotoxic, partial curve, poor fit]"
same,Potency,[5],"inconclusive: 54.5 µM [cytotoxic, single point]"
same,Potency,[12],"inconclusive: 68.6 µM [cytotoxic, single point]"
[Cl][Hg][c]1ccccc1,Potency,[2],active: 1.93 µM
same,Potency,[3],"inconclusive: 6.11 µM [cytotoxic, full curve, poor fit]"
same,Potency,[8],"inconclusive: 3.89 µM [falling, full curve]"
same,Potency,[9],"inconclusive: 6.92 µM [cytotoxic, partial curve]"
same,Potency,[4],active: 0.309 µM
same,Potency,[5],active: 0.172 µM
same,Potency,[12],active: 0.0863 µM
CC(C)Oc1cc(-n2nc(C(C)(C)C)oc2=O)c(Cl)cc1Cl,Potency,[2],"inconclusive: 43.3 µM [cytotoxic, partial curve, poor fit]"
same,Potency,[3],active: 12 µM and active: 54.5 µM
same,Potency,[7]; [14],active: 24 µM and active: 43.3 µM
same,Potency,[9],"inconclusive: 24.2 µM [inhibitor, partial curve, poor fit] and inconclusive: 54.9 µM [inhibitor, partial curve]"
same,Potency,[4],"inconclusive: 61.6 µM [cytotoxic, single point]"
same,Potency,[10],"inconclusive: 47.9 µM [cytotoxic, partial curve, poor fit]"
same,Potency,[5],"inconclusive: 67.6 µM [cytotoxic, single point] and active: 6.11 µM"
same,Potency,[11],"inconclusive: 30.5 µM [cytotoxic, partial curve] and active: 11 µM"
CC(C)=CC1C(C(=O)OCc2coc(Cc3ccccc3)c2)C1(C)C (stereo unspecified),Potency,[2],"inconclusive: 17.2 µM [cytotoxic, partial curve, poor fit]"
same,Potency,[3],"inconclusive: 54.5 µM [cytotoxic, partial curve] and inconclusive: 61.1 µM [cytotoxic, single point]"
same,Potency,[9],active: 21.8 µM
same,"activity change, negative = inhibition",[9],inconclusive: -43.7%
c1ccc2c(c1)-c1cccc3cccc-2c13,Potency,[6],inactive
same,Potency,[3],"inconclusive: 69.2 µM [cytotoxic, partial curve, poor fit] and inconclusive: 48.6 µM [cytotoxic, partial curve, poor fit]"
same,Potency,[10],"inconclusive: 61.1 µM [cytotoxic, single point]"
same,Potency,[5],inactive and active: 61.1 µM
same,Potency,[12],"inconclusive: 43.3 µM [cytotoxic, partial curve]"
C=CC(=O)[O][Sn]([CH2]CCC)([CH2]CCC)[CH2]CCC,Potency,[6],active: 1.09 µM
same,Potency,[3],active: 1.93 µM
same,Potency,[8],"inconclusive: 3.47 µM [cytotoxic, full curve]"
same,Potency,[9],"inconclusive: 3.89 µM [cytotoxic, full curve]"
same,Potency,[4],active: 1.55 µM
CCN(CC)C(=S)S,Potency,[6],"inconclusive: 10.6 µM [falling, partial curve, poor fit]"
same,"ratio activity, negative = MMP loss",[7]; at 83.2 µM (top of the series),inactive: -4.09% and inactive: -6.49%
same,Potency,[7]; [14],active: 2.98 µM
same,"ratio activity, negative = MMP loss",[7]; [14],inconclusive: 0.182% [at 95.3 µM]
same,Potency,[13],"inconclusive: 5.62 µM [fluorescent, partial curve, poor fit]"
same,Potency,[8],active: 4.9 µM
same,activation,[8],inconclusive: -0.951% and inconclusive: 3.22%
same,Potency,[10],"inconclusive: 27.5 µM [cytotoxic, single point]"
C1=Cc2cccc3cccc1c23,Potency,[2],inactive
same,Potency,[7]; [14],"inconclusive: 60.1 µM [inhibitor, single point] and inconclusive: 34.4 µM [inhibitor, partial curve, poor fit]"
same,Potency,[13],"inconclusive: 31.6 µM [fluorescent, single point]"
same,Potency,[4],"inconclusive: 61.6 µM [rising, partial curve, poor fit]"
same,Potency,[10],"inconclusive: 75.6 µM [cytotoxic, single point] and inactive"
same,Potency,[5],"inconclusive: 34.4 µM [cytotoxic, partial curve, poor fit]"
same,Potency,[12],"inconclusive: 67.4 µM [cytotoxic, single point]"
CCCCCC[n+]1ccccc1,Potency,[2],"inconclusive: 0.0194 µM [cytotoxic, full curve, poor fit]"
same,Potency,[10],"inconclusive: 68.5 µM [cytotoxic, single point]"
same,Potency,[11],"active: 55.5 µM and active: 55.3 µM and inconclusive: 43.7 µM [cytotoxic, partial curve, poor fit]"
CN(C)C(=S)S,Potency,[6],"inconclusive: 7 µM [falling, partial curve, poor fit]"
same,Potency,[3],inactive
same,Potency,[7]; [14],"inactive and inconclusive: 1.52 µM [inhibitor, single point] and inconclusive: 9.69 µM [inhibitor, partial curve, poor fit]"
same,Potency,[4],inactive
same,Potency,[10],"inconclusive: 70 µM [cytotoxic, single point]"
same,Potency,[5],"inconclusive: 70 µM [cytotoxic, single point]"
same,Potency,[11],active: 15.8 µM and active: 1.54 µM and active: 9.77 µM
Cc1ccc(OP(=O)(Oc2ccccc2)Oc2ccccc2)cc1,Potency,[6],inactive
same,Potency,[3],"inconclusive: 49.2 µM [cytotoxic, partial curve]"
same,Potency,[4],inactive
same,Potency,[10],"inconclusive: 17.5 µM [rising, partial curve]"
same,Potency,[5],"inconclusive: 69.6 µM [cytotoxic, single point]"
same,Potency,[12],"inconclusive: 69.6 µM [cytotoxic, single point]"
C[C@@H]1O[C@@H](O[C@H]2C[C@@H](O)[C@]3(CO)[C@H]4[C@H](O)C[C@]5(C)[C@@H](C6=CC(=O)OC6)CC[C@]5(O)[C@@H]4CC[C@]3(O)C2)[C@H](O)[C@H](O)[C@H]1O,Potency,[2],active: 33.5 nM and active: 53.1 nM and active: 20.6 nM
same,activation,[8],inconclusive: -7.38%
same,Potency,[11],active: 67.4 nM and active: 53.5 nM and active: 11.7 nM
OC(c1ccc(Cl)cc1)(c1ccc(Cl)cc1)c1cccnc1,Potency,[2],inconclusive: 68.6 µM [cytotoxic]
same,Potency,[7]; [14],active: 54.5 µM
same,Potency,[8],"inconclusive: 61.6 µM [cytotoxic, single point]"
same,Potency,[9],active: 49 µM
same,Potency,[4],inconclusive: 54.9 µM [cytotoxic]
same,Potency,[11],active: 54900 nM
CCCN(CC)CC1COC2(CCC(C(C)(C)C)CC2)O1 (stereo unspecified),Potency,[6],inactive
same,Potency,[7]; [14],inconclusive: 24.3 µM [activator]
same,Potency,[8],inactive
O=C(N[C@H]1N=C(c2ccccc2F)c2cccc3c2N(CC3)C1=O)c1cc2ccccc2[nH]1,Potency,[2],inactive
same,"ratio activity, negative = MMP loss",[7]; [14],inconclusive: -17.7%
same,Potency,[8],"inconclusive: 19 µM [falling, partial curve]"
same,Potency,[9],"inconclusive: 21.3 µM [cytotoxic, partial curve]"
same,Potency,[10],"inconclusive: 33.5 µM [cytotoxic, single point]"
same,Potency,[5],inactive
